The supplement of paper PMC11417369
Some of the results follow.

system: PfSIP2 AP2 domain 1 (GST-tagged); assay: gcPBM binding intensity (ln(normalized median fluorescence intensity)); higher = stronger DNA binding
Outline: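 DNA-binding domains from P. falciparum, fused to GST and produced in E. coli, were put on an Agilent 4 × 180k double-stranded probe array for 1 h in 1× PBS holding 1% milk, 0.2 mg/ml BSA, 0.5% salmon testes DNA and 0.03% Triton X-100. Probes were primer-extended, 36 bp long and drawn from intergenic genomic regions, with negative controls included. After Alexa488 anti-GST antibody detection and a 488 nm scan, binding intensity was set as the highest Masliner-normalised natural-log median intensity across replicate spots of either probe orientation.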

Sequence | gcPBM binding intensity (ln)
TTTTACAATAACAATACACACTATAATATATATATA [CACACA_site4893] | 8.76
CATATATATAAATACACACACACACCCCTTATAATT [CACACA_site4064] | 7.1
TAGGAGCCGAAACACACACACAAAAAAAAAAAAAAA [CACACA_site1731] | 6.87
AAAAGAATTTGAAGTCGTACAATATCTATTATATGA [XGTACX_site8275] | 6.93
ATATAATATACTTATTGTACTTATTTAAAATACTAA [XGTACX_site4266] | 6.98
AAAAAATGGCTAGTTTGTACACAAAAGTTATTGCAT [XGTACX_site5381] | 6.72
AAAAAAAAATAAAAATGTACATATATAATATTATAT [XGTACX_site71] | 7.14
TTTCTCAATTCTTAGAGTACATAAATAAAAAAAAAA [XGTACX_site7639] | 7.13
AAGATAAAATTATGCACACATACGAATAATTTTAAA [CACACA_site1705] | 7.24
GAATATATAAGAACAAATATGGCTTAGAAAAAAAAA [TGCATGCA_negctrl_site451] | 6.61
ATAAAAATGGATGAATATAAAAAAAAAAAAATATAT [CACACA_negctrl_site182] | 7.03
TACAAAAGTTAAACATGTACTTAATTATATGTTTTT [XGTACX_site2852] | 6.84
TCAAGTTTATATTAACTATTTATGAAAAAAAAAAGA [CACACA_negctrl_site902] | 6.74
TTACACTAAATATGTTCACACATTTTTTCCATCATA [CACACA_site4647] | 6.86
CTAAAAATTTTAATTGCACACCACGTTGGACTATTT [CACACA_site1489] | 7
TATAAGGCAATAATAGTGCACTAAGATATATAATGA | 10.6
ATATATTACAAATGGAGTACTAAAAATATTCTATAT [XGTACX_site6669] | 7.33
TATATATATGGGTTTACACACAATAATGAATTAAAA [CACACA_site915] | 7.46
CCCATGCATTTTTGCACACACATATATTTATAAATA [CACACA_site6785] | 8.16
CCCACAGACGGACACACACACACATATATATATATA [CACACA_site4352] | 9.24
TCTTTATATATATATATATGTGTGAATGTTAAGTAT [XGTACX_negctrl_site135] | 7.57
ATTTTTTTTTTTTCCTTACACACATATTTCATTTTA [CACACA_site748] | 7.26

Sequence | gcPBM binding intensity (ln)
AAATTGTCTGCATATAGTACATAAATATATTAATAT [XGTACX_site4557] | 7.15
ATATATATATATATAGTGCATAATGTTTTAATAGAT | 9.54
CTATTAAAAAAATTATGTACACAACGTCTCTATATA [XGTACX_site4813] | 7.01
TACATTTTTATTTTTACACACATATATATATATATA [CACACA_site1021] | 9.55
GAGTTTATTCTTTTTATACACACCTTATTTGATTAA [CACACA_site735] | 7.15
TATAATATATTTATATGTACTTATTTATTTATATAT [XGTACX_site6519] | 7.03
TATTATTTTATGAGACATAAAAAAAAAAAAAAAAAA [CACACA_negctrl_site1534] | 7.18
AAGTATTATTATAAGACACACATGTATATAAGTATA [CACACA_site1479] | 6.94
TTAAGTATTTTACGTACACACTTATAAATGTACAGG [CACACA_site6012] | 7.19
TTGCCATTAATTTATACACACACATTTTAATTTTTT [CACACA_site8150] | 7.17
TTGTCATTTATAAAATGTACGTGTGTATATATTTAA [XGTACX_site5000] | 7.07
TCAATAGTTACTAGTACATGCAAAAATAAACCTATA [TGCATGCA_site85] | 7.2
CAAATATATATGTTCACACATATAATTATTGTGAAA [CACACA_site4190] | 6.89
AAGAAAATAAAATAAAAAAAAAAATAAAAAAAATAA [TGCATGCA_negctrl_site516] | 6.77
TTTTAAAGCATATCATATAAAGAACATGACATAGGA [CACACA_negctrl_site630] | 6.9
TTATATTTATGATACACACACGTATATTCACATACA [CACACA_site6354] | 7.01
AACATTTTTAAATATATAAAAATATATATATATATA [XGTACX_negctrl_site551] | 8.94
GTATGTTTAATTTTAGTGCAATTATAAATATTTTAA [GTGCAC_site9531] | 8.26
AATATCATCAAACGCACACATACATAAATATATTAT [CACACA_site2174] | 7.24
GTTCTTTCAAGTTATACACACCAAAAAAAAAAAAAA [CACACA_site7435] | 7.33
TTTCTTTATTTTTTTTTTTTTTTTTTTCCTTTTTTT [TGCATGCA_negctrl_site231] | 6.62
TGTTATATTTGTGCGTGTACACATTTGAAAAAATAT [XGTACX_site3796] | 8.1

Sequence | gcPBM binding intensity (ln)
TGTGCACGCATATACACACACAAATACAATGATAAA [CACACA_site6656] | 10.6
AACGGGGCCAAGAAATATAAATAATCAAAACAAAAA [XGTACX_negctrl_site320] | 7.02
AGTGTGTGTGCGTATAGTACATATACATATATACAC [XGTACX_site6882] | 7.15
AAATGAATAAAATTTATTTATAAAAGAAAAATCACA [GTGCAC_negctrl_site225] | 6.89
ATAATACAAAATACATGTACAAATATTTTTCATATT [XGTACX_site1721] | 7
TAGTACACACAAAATACATGCGGGGTTTAATATTTA [TGCATGCA_site576] | 6.82
AATTCTTTCATATATTGTACGTATTCCCATAAAATA [XGTACX_site5923] | 7.36
TTTAAATATTTTAACACACTCATATTTAGGTTACAA [CACACA_site5685] | 6.98
TTTACATATTTATATACACACTTTTGCGTGTCTGGT [CACACA_site4750] | 6.99
TCCATATATATTATGTGTACATATTATATATATAAA [XGTACX_site7525] | 7.32
TAATCCATAAGAAGCACACACATATAAATATATTTT [CACACA_site6774] | 6.98
GTAATATTATATAGTTGTACTTTTTTTTTATTATAT [XGTACX_site483] | 7.18
ATATATAAAATATATTGTACATTAACATATATATTT [XGTACX_site2055] | 6.88
AAACTTGACGGACACACACACACATATATAAAAAAA [CACACA_site4577] | 7.44
ATATATAAATAAATAGTGCATTTTAATATTTAACGT | 9.27
AGTAAAAGAAAGCACACACACATGTATATATGTATG [CACACA_site3858] | 6.9
CAATATAAAAAACACACGCACACAAAAAAAAAAAAA [CACACA_site3521] | 7.01
AAAAAAAAAATTTTCGTGCACATAAGAAAATTTAAA [GTGCAC_site9788] | 9.36
ATAGTATATCAAAATTTGTAAATCATTCTCAATAAA [CACACA_negctrl_site430] | 6.67
CATACATACAAACACACACACATATAAATACATACA [CACACA_site4625] | 7.3
ACATTGTTGGTGTTAGTGCATTGGTAAATATTATAT | 8.5
AAAAAAAAAAAAAAAACACACATATCTGTATTTATA [CACACA_site5760] | 7.51

Sequence | gcPBM binding intensity (ln)
CACACGTAAAAGTATAATATAAAAAAGGTATACACT [CACACA_negctrl_site127] | 6.92
TATTTAAAGATATATACACACATTTGATATTATTAT [CACACA_site6509] | 6.94
ACCTACATACATATGTGTACTTATTTGTATTCACTG [XGTACX_site7124] | 7.1
TTTATAAACAAATGAACACACAAACATATTTATATA [CACACA_site7478] | 6.88
ATAATATATGAAAAAACGATTTTTTCATTTTAAATA [XGTACX_negctrl_site146] | 6.85
TTTTAGCTATTTTAATATAATGAAGCAAAAAATAAA [TGCATGCA_negctrl_site576] | 6.9
ATAATAAATTCTACGCGTACAAAACCATGAACATTA [XGTACX_site7505] | 7.43
CTTTCAAAATTATTTATAGTATCTCATATTTTAGTA [XGTACX_negctrl_site72] | 6.74
TTTATTAATAAAAAGGTGCAATCAGGAAAAATTATC [GTGCAC_site9626] | 10.8
ATCCTTTATAAATAAGTGCATATAAAAAATAATATT [GTGCAC_site9759] | 8.72
ACACATATGTATATATGTACTTATATATATATATAT [XGTACX_site8632] | 9.2
AATTATATATAAAAAGTGCAAAACGATAATTCATCA | 8.26
TCATATTCCAAAAAAAAAAAAAAAAAAAAAAAAATA [CACACA_negctrl_site1293] | 6.94
AATATATATATATTATGTACACATAGAAATATATTA [XGTACX_site3874] | 7.25
ATGTATTACTTAAATATATGAAACATATTACTTTTA [CACACA_negctrl_site496] | 6.7
TTTTTTTTTTTTTTTTGTACTTATAAAATAACATGT [XGTACX_site134] | 7.18
TAATACTTAGAGAAAAGTACGTATGAACTTATGTAA [XGTACX_site5504] | 6.79
AGTCCTTACACATATATTAAATATGTGTATATATAT [XGTACX_negctrl_site336] | 7.72
TTTTGTTTAGTGTATTGTACAATATATCTTTATTTT [XGTACX_site5163] | 6.94
TATTAATACGGACACACACACACACTAGATAAAATA [CACACA_site4295] | 7.4
AAAAAAAAAAAAAAAAGTACATATATATATATAATT [XGTACX_site4437] | 7.54
TATTTAAATACTGACGCATGCATAAGGAGTAATAGT [TGCATGCA_site465] | 7.34
